# About 260 (0.074%) of roughly 350,000 compounds were called active. Inconclusive means that the source gave no clear call. Such entries were picked first, then a sample of the others. The call rests on the fitted dose curve; in most records, active means well fitted inhibition curve with a large enough effect; inconclusive means small, poorly fitted or top-dose-only effect; inactive means no such curve, though single readings can be large or run the other way. A potency beside an inconclusive call is a rough fit, not a confirmed value.
# Biological target: Ferritin light chain (Equus caballus) (UniProt P02791)
# Assay: qHTS Assay for Identification of Novel General Anesthetics; further: nearly all actives have a fitted effect of over 20% in size
# Conditions: apoferritin/1-aminoanthracene competitive binding, fluorescence; series mostly up to 77.5 µM
# How it was run: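 Steps: apoferritin (10 uM) was premixed with half-saturated 1-AMA in PBS, compounds were pin-transferred, plates stood 10 min at room temperature, fluorescence was read at 380/535 nm, and curves were fitted with a Hill equation.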
# Potency means the concentration at half of the fitted maximal effect; tags describe the fitted curve by direction and shape.
# Chain of UniProt P02791 (P02791 whole entry, looked up): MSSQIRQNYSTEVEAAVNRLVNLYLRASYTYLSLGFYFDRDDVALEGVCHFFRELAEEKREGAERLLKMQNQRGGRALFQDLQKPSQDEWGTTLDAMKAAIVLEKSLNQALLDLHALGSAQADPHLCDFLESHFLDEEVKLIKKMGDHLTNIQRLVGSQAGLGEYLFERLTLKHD
row,Structure (SMILES),Potency
1,CC(C)c1ccc(N=C2NN=C(c3cccs3)CS2)cc1,"inconclusive: 35.5 µM [inhibitor, single point]"
2,N#CC(C(=O)NC1CCCCC1)=C1CCCCCC1,inactive
3,Cc1cccc(NC(=O)C(=O)NCC(c2cccnc2)N2CCN(Cc3ccccc3)CC2)c1 (configuration not stated),inactive
4,COc1ccc(CN2C(=O)c3ccccc3C2=O)cc1,"inconclusive: 22.4 µM [inhibitor, partial curve]"
5,COc1ccc(OC)c(NC(=O)C(Cc2ccccc2)NS(=O)(=O)c2ccc3c(c2)CCC(=O)N3)c1 (configuration not stated),inactive
6,CC(C)c1ccc(NC(=O)[C@H](Cc2c[nH]c3ccccc23)NC(=O)[C@@H]2Cc3ccccc3CN2)cc1,"inconclusive: 6.31 µM [inhibitor, partial curve]"
7,COc1ccc(S(=O)(=O)N2CCOC2CNC(=O)C(=O)NCCc2ccccc2)cc1C (configuration not stated),"inconclusive: 11.2 µM [inhibitor, partial curve]"
8,CCc1sc(-c2c(C#N)c(N)nc3c2CCCCCC3)cc1[N+](=O)[O-],"inconclusive: 2.51 µM [inhibitor, full curve, poor fit]"
9,CCCN1C(=O)/C(=C2\SC(N3CCCCC3)=NC2=O)c2ccccc21,"inconclusive: 3.16 µM [inhibitor, full curve, poor fit]"
10,Cc1cc(Cl)ccc1OC(C)c1nnc(N)s1 (configuration not stated),"inconclusive: 22.4 µM [inhibitor, partial curve]"
11,CCN1C(=O)CSc2ccc(C(=O)NCc3ccccc3)cc21,inactive
12,Cc1ccc(C)c(N(CC(=O)NC2CCCC2)C(=O)c2oc(C(C)(C)C)cc2C)c1,inactive
13,CCN1CCCC1CNC(=O)CCc1nnc(CCC2CCCCC2)o1 (configuration not stated),"inconclusive: 25.1 µM [inhibitor, partial curve]"
14,Cn1nccc1C(=O)Oc1cccc(/C=N/NC(=O)c2ccccc2O)c1,"inconclusive: 39.8 µM [inhibitor, single point]"
15,COc1cc(C(C#N)N2N=C(c3ccccc3)CC2c2ccccc2)ccc1O (configuration not stated),"inconclusive: 14.1 µM [inhibitor, partial curve]"
16,COc1ccc(C2OC(=O)c3ccccc3S2)cc1 (configuration not stated),"inconclusive: 28.2 µM [inhibitor, partial curve]"
17,N/C(=N\OC(=O)c1ccc2c(c1)OCO2)c1ccncc1,inactive
18,O=C(NCc1ccccc1Cl)C(=O)c1c[nH]c2ccccc12,"inconclusive: 15.8 µM [inhibitor, partial curve]"
19,CC(C)(C)c1nc(NCCO)c2nnn(Cc3ccccc3)c2n1,"inconclusive: 39.8 µM [inhibitor, single point]"
20,COc1ccc(-n2c(Cc3ccccc3)nnc2SCC(=O)N2CCCc3ccccc32)cc1,inactive
21,COc1ccc(NC(=O)CCCCCN2C(=O)c3cccc([N+](=O)[O-])c3C2=O)c(OC)c1,inactive
22,Cc1nnc(N2C(=O)C(=O)/C(=C(/O)c3ccc4c(c3)OCCO4)C2c2ccc([N+](=O)[O-])cc2)s1 (configuration not stated),"inconclusive: 22.4 µM [inhibitor, partial curve]"
23,CC1(C(=O)OCc2cc(=O)n3cc(Br)ccc3n2)CC1(Cl)Cl (configuration not stated),"inconclusive: 25.1 µM [inhibitor, partial curve]"

row,Structure (SMILES),Potency
1,Cc1ccc(NC(=O)CC2Sc3ccccc3NC2=O)c(C)c1 (configuration not stated),"inconclusive: 10 µM [inhibitor, full curve, poor fit]"
2,S=C(Nc1cccc(Cl)c1)Nc1ccccc1Oc1ccccc1,"inconclusive: 28.2 µM [inhibitor, single point]"
3,Cc1cccc(OCC(=O)N/N=C/c2cn[nH]c2-c2ccc(Cl)c(Cl)c2)c1,"inconclusive: 14.1 µM [inhibitor, partial curve]"
4,O=C(CN1C(=O)C2C3CCC(C3)C2C1=O)Oc1ccc2ccccc2c1 (configuration not stated),"inconclusive: 14.1 µM [inhibitor, partial curve]"
5,Cn1c(NCc2ccccc2O)nc2ccccc21,inactive
6,Cc1ccc(CN2CCN(/N=C/C=C/c3ccccc3[N+](=O)[O-])CC2)cc1,"inconclusive: 35.5 µM [inhibitor, partial curve]"
7,Cc1cccc(CC(C)NC(=O)c2cc(COc3ccc(C)c(C)c3)on2)n1 (configuration not stated),"inconclusive: 35.5 µM [inhibitor, partial curve]"
8,O=C1C2C3C=CC(C4CC34)C2C(=O)N1c1cc(Cl)ccn1 (configuration not stated),"inconclusive: 35.5 µM [inhibitor, single point]"
9,O=C(CC1C(=O)NCCN1Cc1cccc(F)c1F)NC1CCCCCC1 (configuration not stated),"inconclusive: 25.1 µM [inhibitor, partial curve]"
10,Cc1cc(Nc2cccc(F)c2)nc(NCc2ccccc2)n1,"inconclusive: 50.1 µM [inhibitor, single point]"
11,O=C1c2ccccc2S(=O)(=O)N1CCOc1ccccc1,"inconclusive: 44.7 µM [inhibitor, single point]"
12,CCc1ccccc1NC(=O)c1nnn(CC(=O)Nc2cccc(C)c2C)c1N,"inconclusive: 10 µM [inhibitor, partial curve]"
13,CCN(CC)S(=O)(=O)c1ccc(/C=C/C(=O)OCC(=O)NCc2ccc3c(c2)OCO3)cc1,"inconclusive: 31.6 µM [inhibitor, partial curve]"
14,O=C1c2ccccc2C(=O)c2c(NCCCN(CCO)CCO)cccc21,"inconclusive: 28.2 µM [inhibitor, partial curve]"
15,CCOC(=O)c1sc(NNC(=O)c2ccc(F)cc2)nc1C,inactive
16,COC(=O)c1ccc(NC(=O)c2cccc(N3C(=O)C4C5C=CC(C6CC56)C4C3=O)c2)cc1 (configuration not stated),"inconclusive: 35.5 µM [inhibitor, partial curve]"
17,Cn1c(-c2ccc(Br)o2)nc2ccccc21,"inconclusive: 44.7 µM [inhibitor, single point]"
18,CCOC(=O)c1cccc(NC(=O)N2Cc3ccccc3Oc3ncccc32)c1,"inconclusive: 14.1 µM [inhibitor, partial curve]"
19,CC(=O)N1c2ccc(S(=O)(=O)NCCc3cccc(C)c3)cc2CC1C (configuration not stated),"inconclusive: 39.8 µM [inhibitor, single point]"
20,O=C(c1nc2ccc(Cl)cn2c1CNCC[C@@H]1C[C@@H]2C=C[C@H]1C2)N1CCCCCCC1,"inconclusive: 12.6 µM [inhibitor, partial curve]"
21,COc1ccc(CC/C(=N\O)C2(O)CCCCC2)cc1,"inconclusive: 22.4 µM [inhibitor, single point]"
22,COc1ccc(/C=C/C(=O)NC(=S)NCC2CCCO2)cc1 (configuration not stated),"inconclusive: 35.5 µM [inhibitor, single point]"
23,CCOC(=O)C1(CC2CCCCO2)CCN(Cc2ccc(OC)cc2F)CC1 (configuration not stated),inactive

row,Structure (SMILES),Potency
1,CCN1CCN(C(c2ccc(Cl)cc2)c2c(O)cc(C)n(CCOC)c2=O)CC1 (configuration not stated),inactive
2,CN(C1CCCCC1)S(=O)(=O)c1ccc(NC(=S)NC(=O)c2cccs2)cc1,"inconclusive: 22.4 µM [inhibitor, partial curve]"
3,CC1(C)Oc2ccc3ccc(=O)oc3c2/C(=C/Nc2ccc(O)cc2)C1=O,"inconclusive: 35.5 µM [inhibitor, partial curve]"
4,CN1CCN(CCCNC(=O)c2ccc3c(=O)n(CCc4ccccc4)c(=O)[nH]c3c2)CC1,inactive
5,COc1cccc([C@@H]2Oc3ccc(Br)cc3C(=O)[C@H]2O)c1,"inconclusive: 3.98 µM [inhibitor, partial curve]"
6,Cc1cc(C)cc(N(CC(=O)Nc2ccc(C(F)(F)F)cc2)S(=O)(=O)c2c(C)[nH]c(=O)[nH]c2=O)c1,"inconclusive: 25.1 µM [inhibitor, partial curve]"
7,Cc1cc(N2CCC(C)CC2)nc2cccc(O)c12,"inconclusive: 15.8 µM [inhibitor, partial curve]"
8,COc1ccc(CNC(=O)C(=O)NC2CC(C)(C)NC(C)(C)C2)cc1,inactive
9,CCC(C)NC(=O)CNC(=S)N(Cc1ccccc1)Cc1cccnc1 (configuration not stated),inactive
10,CCN(CC)c1ccc2c(c1)OC(N)=C(C#N)C2c1cccnc1 (configuration not stated),"inconclusive: 11.2 µM [inhibitor, partial curve]"
11,Cc1ccsc1/C=C/c1ccc2ccccc2n1,"inconclusive: 28.2 µM [inhibitor, partial curve]"
12,O=C(CCNc1ccccc1)c1cccc([N+](=O)[O-])c1,"inconclusive: 31.6 µM [inhibitor, partial curve]"
13,O=C(NCc1cccc(Cl)c1)c1cccc(C(F)(F)F)c1,"inconclusive: 25.1 µM [inhibitor, partial curve]"
14,CSC1=C(C#N)C(c2ccccc2Cl)C2=C(N1)c1ccccc1C2=O (configuration not stated),inactive
15,Cc1ccc2sc(N(CCCN(C)C)C(=O)CCS(=O)(=O)c3ccccc3)nc2c1C,inactive
16,C/C(CCc1oc2ccc(Br)cc2c1-c1ccc(C)o1)=N/O,inactive
17,Cc1ccc(C(=O)COC(=O)CN2C(=O)C3C4CCC(C4)C3C2=O)cc1C (configuration not stated),"inconclusive: 25.1 µM [inhibitor, partial curve]"
18,CCCC(=O)O[C@]1(C(=O)COC(C)=O)CC[C@H]2[C@@H]3C[C@H](F)C4=CC(=O)C=C[C@]4(C)[C@@]3(F)[C@@H](O)C[C@@]21C,"inconclusive: 35.5 µM [inhibitor, partial curve]"
19,CCOc1ccc(N2CSC3=C(C#N)C(c4ccco4)CC(=O)N3C2)cc1 (configuration not stated),"inconclusive: 31.6 µM [inhibitor, partial curve]"
20,CCCCCCSc1cc(C)nc2ncnn12,"inconclusive: 35.5 µM [inhibitor, single point]"
21,CCOC(=O)c1ccc(N2C(=O)c3n[nH]c(-c4ccco4)c3C2c2cccc(F)c2)cc1 (configuration not stated),inactive

# From PubChem BioAssay AID485281 (National Center for Advancing Translational Sciences (NCATS), 2010)
